Results taken from the RNAGym collection of RNA variant scans (doi:10.1073/pnas.2313332121).
This sample is rich in variants without activity.

B1: TPR 5TU (parent)
chain: GGAUCUUCUCGAUCUAACAAAAAAGACAAAUCUGCCACAAAGCUUGAGAGCAUCUUCGGAUGCAGAGGCGGCAGCCUUCGGUGGCGCGAUAGCGCCAACGUUCUCAACUAUGACACGCAAAACGCGUGCUCCGUUGAAUGGAGUUUAUCAUG

Variants of: B1
Experiment: polymerase ribozyme fitness, log enrichment relative to wild type (log ratio); higher = more active; in vitro selection for triplet polymerase activity
How it was run: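 Genotype fitness is the logarithm of its enrichment divided by wild-type enrichment, using inverse-variance-weighted averages of replicates. That logarithm is base 2. Enrichment was measured by Illumina sequencing of input and output libraries from one triplicate in vitro selection round, with frozen incubation at −7 °C, on PCR-built, transcribed mutant libraries of each subunit of a heterodimeric triplet polymerase ribozyme, retaining genotypes with ≥10 input reads and ≥1 read per output.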

Point of comparison: A40C C57A U139C, “polymerase ribozyme fitness (log ratio)” value -3.43. Against it:
- A41C A52U A60U G88A C131A U134C G140A — lower, ≤ -4.2
- A39U U44A C75A U101A U127A — lower, ≤ -4.2
- A40G G62A G86U C95U U134C — lower, ≤ -4.2
- A40U C69A G143C — higher, -2.79
- A39U A41C G80C G84U A142C C149A — lower, ≤ -4.2
- A41U G42U U61G C79G U90C A98G G140C G141A — lower, ≤ -4.2
- A41C C72G A106G G143C U151G — lower, ≤ -4.2
- A39U C96A — higher, -2.81
- A39U C96G — higher, -2.11
- A40G C57U C79G A150G — lower, ≤ -4.2
- A40U G48C C85G C99A G143A — lower, ≤ -4.2
- A41C U44A G84A U146G — lower, ≤ -4.2
- A40U G48A G74A U90C G152U — lower, ≤ -4.2
- A41C U45G A91G U148G — lower, ≤ -4.2
- A40G A41C A52C C63A U77A U78C C85G — lower, ≤ -4.2
- A39G G59A C116U U144C — lower, -4.19
- A40C U53A G88C U139C — lower, ≤ -4.2
- A40U G50C C85U — higher, -2.29
- A39U C93A C95A C129A — lower, ≤ -4.2
- A41U A52G U55A C69A G86U — lower, -3.96
- A39G A73G U109A A119U — lower, -3.91
- A40U A89C C114U — higher, -2.95
- A40C A49U C57A C76A U82C G94U — lower, ≤ -4.2
- A40C U56A C69G A91U A110U G136A U148A — lower, ≤ -4.2
- A40G C75U A89C C95U C99A — lower, ≤ -4.2
- A40U C51U C93U — higher, -1.15
- A40G C57U C87G A107U G126A — lower, ≤ -4.2
- A41C C54U G92A U127A — lower, ≤ -4.2
- A41U A47C A60U C75U C76G A91G G94A A121G G141C — lower, ≤ -4.2
- A41U C103G A137C U148C — lower, ≤ -4.2
- A41U U61A G68U A107C U145G — lower, ≤ -4.2
- A39G A89C A97U G126A A147G — lower, ≤ -4.2
- A41G G86U C87U G143A — lower, ≤ -4.2
- A40G A41G G67C A120C — lower, ≤ -4.2
- A39G G117U A147G — lower, ≤ -4.2
- A41U G42U A49C G68A — lower, ≤ -4.2
- A41U U55G G59A U77G G80A — lower, ≤ -4.2
- A39U C87G C108U C125G U127G — lower, ≤ -4.2
- A40G G81C C132U A138C — lower, ≤ -4.2
- A41U C93A U134A G141C — lower, ≤ -4.2
- A41U A52U — higher, -2.47
- A41U A52C — higher, -2.05
- A39G C79A C96U A122G G124U G141C — lower, ≤ -4.2
- A40C U44G C63U C95U C103G A115G A142C — lower, ≤ -4.2
- A40C G83A A97G — higher, -1.2
- A39U A66C G68A C108U A121U U134A G143U — lower, ≤ -4.2
- A40G G48A C87U C96A G141U A147G — lower, ≤ -4.2
- A39U C54U U55G C93U C103U — lower, ≤ -4.2
- A41U G83U G88U A120U U139C — lower, ≤ -4.2
- A40C U55A G59C C69U G84A — higher, -2.39
- A39U U44G A60U C75U C93U C95G C149A U151G — lower, ≤ -4.2
- A40G U53A A60U A91U G117A — lower, ≤ -4.2
- A41C C51A G68U C69A G84U A106U — lower, ≤ -4.2
- A41G C54U G84C A106C U111A A115C — lower, ≤ -4.2
- A40C G62U A119U — higher, -0.408
- A40U C99G G126A C149G — lower, ≤ -4.2
- A41C G88A G92A A115U U151G — lower, ≤ -4.2
- A39U A64G G86A A89G U135A — lower, ≤ -4.2
- A39U A49C G50U A64C C75U G84C — lower, ≤ -4.2
- A40C G68U G86A C103G — lower, ≤ -4.2
- A41C G50C G84A — lower, ≤ -4.2
- A40U C85A — higher, -1.44
- A40U C85G — higher, -1.32
- A40G C43U A49U A121U — lower, ≤ -4.2
- A39U A47U U82G C114U U144C — lower, ≤ -4.2
- A39U G48A C93A — lower, ≤ -4.2
- A41C U44G U82A G84C U102G — lower, ≤ -4.2
- A41U C57G A91G C99A A115U — lower, ≤ -4.2
- A39G U77A G143C — lower, ≤ -4.2
- A39G G42A C87G — lower, ≤ -4.2
- A40C A49C G88C G117A G141U U146A A150C — lower, ≤ -4.2
- A41C C75U C87A U148A — lower, ≤ -4.2
- A40C C51U A66U G124A — lower, ≤ -4.2
- A41U C54U C63U U82A C95G A115U — lower, ≤ -4.2
- A41U G74A C103U C114U U134C — lower, ≤ -4.2
- A40U G59C — higher, 0.561
- A41C U61A C76A A91U C99A A110U A150C — lower, ≤ -4.2
- A39U A52C A150C — lower, ≤ -4.2
- A40U G83A A89U C114U G133U G136U U145A — lower, ≤ -4.2
- A40C C54U G71A A89U C114U G117A — lower, ≤ -4.2
- A41G A52G C87U U144G U148G — lower, -3.95
- A41U U53A G88A U101G C108U G128C A142C — lower, ≤ -4.2
- A41C U82C — higher, -1.14
- A41U G62U G71U — lower, ≤ -4.2
- A41C U53A C76U — higher, -1.65
- A40C C75U C116U A119C — higher, -1.75
- A39U G84U A91U U151C — lower, ≤ -4.2
- A40U G68A — lower, -4.03
- A40C G74U C87A A97C A138C — lower, ≤ -4.2
- A41U A47U U55G C57A A60U A73G C96U G117U U146C — lower, ≤ -4.2
- A41U G42A C85A G126U C129U — lower, ≤ -4.2
- A39G C93A C118G — lower, ≤ -4.2
- A41U G42C C69U C85G G88A C114G U148G — lower, ≤ -4.2
- A39G C57A C99G — higher, -3.15
- A41C G152U — higher, -2.69
- A40U A47U A49C G152U — lower, ≤ -4.2
- A41C U55A G58C A98U — higher, -0.108
- A40C A41G G65A C69U C85U U102C A106G C129G U148G — lower, ≤ -4.2
- A41U G74A G94C — lower, ≤ -4.2
- A39U A41U U56A G71A — lower, ≤ -4.2
- A39G A47C C123U A150G G152A — higher, -3.23
- A39G U56G G58C C79U U102A U127G — lower, ≤ -4.2
- A39G A110G — lower, ≤ -4.2
- A40U U104C A107C C149U — lower, ≤ -4.2
- A39U A47G U53G A73G U82A G86A G128C — lower, ≤ -4.2
- A40G U55A G143C — lower, ≤ -4.2
- A41C G86U A89G G140A — lower, ≤ -4.2
- A41U G58C U78G G81A C103A C132G A147C — lower, ≤ -4.2
- A41G C85U U101C C125G G133U C149A — lower, ≤ -4.2
- A40C C99G U127A U139G G143A U148C — lower, ≤ -4.2
- A40C G94U C129G U139A G141U U146C — lower, ≤ -4.2
- A41C C87G — lower, ≤ -4.2
- A41C A47C C85A C93G G94C C108U A137U C149G — lower, ≤ -4.2
- A39U A89G G126U — within 0.2 log units, -3.58
- A39G C85U C103A — lower, ≤ -4.2
- A41U A64G G81C C87A G140U A142G — lower, ≤ -4.2
- A41G U61A A89U C93G A97U A106G U134G — lower, ≤ -4.2
- A41C C54A A91C U104G U127A G140U U151C — lower, ≤ -4.2
- A41U C93A U139A — lower, ≤ -4.2
- A40C A52U G68C C85A G128C — lower, ≤ -4.2
- A40C A97U — higher, -0.185
- A40C A97C — higher, 1.5
- A39G A40G A41U U44A G62A G136A U139C G141C — lower, ≤ -4.2
- A40G A47G U144G — higher, -2.26
- A41C G59C C75U G83C — higher, -2.72
- A39U A66G G88A A107U C114G — lower, ≤ -4.2
- A40C A91C — lower, ≤ -4.2
- A40U C79U G81A G94U G133A — lower, ≤ -4.2
- A39U G117U — higher, -1.04
- A41U G58A G74U C108A A120G G141A — lower, ≤ -4.2
- A39U C54U C96A — higher, -2.72
- A39G U53G C54G A73G G83A G84A G117C U151G G152U — lower, ≤ -4.2
- A41U G83C A110G G126A — lower, ≤ -4.2
- A41C A91C C118A C125A A150U — lower, ≤ -4.2
- A41G G94U C114U A150G — lower, -3.98
- A40C G59A C76G C93G — lower, ≤ -4.2
- A41C U53A U78G G84U G126U — lower, ≤ -4.2
- A39G C87U A147C C149A — lower, ≤ -4.2
- A40G A64G G136A — lower, ≤ -4.2
- A40U C54U G71U C95A U146C G152A — lower, ≤ -4.2
- A40G U53A A73U C103G — lower, ≤ -4.2
- A39G G83U A113U C116U C125U G143A — lower, ≤ -4.2
- A39U C54U C57G U61A C95G C125G — lower, ≤ -4.2
- A40G U55A C85U A106C — lower, ≤ -4.2
- A40G A91C U146C — lower, ≤ -4.2
- A40U G88U C95U A121U — lower, ≤ -4.2
- A40U U44A A47C A66G C116U — lower, ≤ -4.2
- A41U G58C G124U G128U A147U U148G — lower, ≤ -4.2
- A39U U77G G124C U135G U146A — lower, ≤ -4.2
- A41U U45A G62C G86U — lower, ≤ -4.2
- A40C G100U U102G U135A — lower, ≤ -4.2
- A41U C87G — lower, ≤ -4.2
- A39U A49G A52G C72A C96U — lower, ≤ -4.2
- A40C A49C U77C — lower, ≤ -4.2
- A41G G84U — higher, -0.79
- A40U A52G C132G — within 0.2 log units, -3.47
- A41G G48U G81C C95A C96A U134G U145C — lower, ≤ -4.2
- A41C G65A A66G U111A C132G — lower, ≤ -4.2
- A40C C75G C85A G141U — lower, ≤ -4.2
- A40C C75G U82G C93G A138G G140C — lower, ≤ -4.2
- A40C U82C G94U — higher, -0.916
- A41G A91U C93G U102A A120U C131G G133A U145G — lower, ≤ -4.2
- A41G C95U A122G C149A — lower, ≤ -4.2
- A39G A89G C95G A110U — lower, ≤ -4.2
- A39G U45A A49U U61A C75U G83U C129G U144G — lower, ≤ -4.2
- A40U U53A — higher, -0.83
